Results taken from PubChem BioAssay AID1347073 (National Center for Advancing Translational Sciences (NCATS), 2019).
In all, about 45,000 compounds went through this assay and about 200 (0.44%) were called active. About 7% were inconclusive and are not listed. Calls come from the whole dose curve; as a rule, active = well fitted activation curve with a large enough effect; inconclusive = small, poorly fitted or top-dose-only effect; inactive = no such curve, though single readings can be large or run the other way. The list shows a part of the results.

Assay: qHTS of TDP-43 Inhibitors: NCGC Sytravon Library Screen; note: 0% is about no effect; nearly all actives have a fitted effect of over 55% in size
Settings: yeast TDP-43 toxicity rescue, BacTiter-Glo growth, 24 h; series mostly up to 46.1 µM; growth rescue (activation): at the top concentration
Outline: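 TDP-43-expressing yeast, pregrown in raffinose, seeded at OD600 0.02 in galactose medium with compound for 24 hr at 30 deg C. Growth read by BacTiter-Glo luminescence, so rescue of toxicity appears as activation.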

Row | Compound | growth rescue (activation)
1 | COc1ccc(-c2cc(C(F)(F)F)n3nc(C(=O)N4CCN5CCCC5C4)cc3n2)cc1OC (stereo not drawn) | inactive: -23.4%
2 | Cc1ccc(S(=O)(=O)N2CCN(S(=O)(=O)N3CCCCCC3)CC2)cc1 | inactive: 1.03%
3 | CCOc1cc(-c2noc(CCC(=O)NCC3CCCO3)n2)ccc1OC (stereo not drawn) | inactive: 1.13%
4 | CC(=O)c1sc(NC(=O)COc2ccc(Cl)cc2C)nc1C | inactive: -9.03%
5 | COC(=O)c1sccc1NC(=O)C1CCCCC1C(=O)O (stereo not drawn) | inactive: 4.8%
6 | CCN(CC(=O)Nc1c(F)cccc1F)C(=O)C1COc2ccccc2O1 (stereo not drawn) | inactive: -10%
7 | O=C(O)CC/C(=N\Nc1ccc([N+](=O)[O-])cc1S(=O)(=O)N1CCOCC1)c1cccs1 | inactive: -3.22%
8 | CCc1cccc(C)c1NS(=O)(=O)c1cccs1 | inactive: 23.4%
9 | COc1ccc(C(=O)N2CCC(C)(C(=O)O)C2)cc1OC (stereo not drawn) | inactive: 13%
10 | CC1CN(S(=O)(=O)c2ccc(C(=O)NCCCn3ccnc3)cc2)CC(C)O1 (stereo not drawn) | inactive: -4.71%
11 | Cc1ccc(C)c(Nc2nc(-c3cccnc3)cs2)c1 | inactive: 15.4%
12 | Cc1ccc(-n2c(C)cc(C(=O)CN3CCOCC3)c2C)cc1C | inactive: -4.26%
13 | O=C(COc1ccccc1Cl)NCCCNC(=O)c1ccco1 | inactive: -1.58%
14 | CCn1c(O)c(/C=N/N=C/c2ccc(OC)cc2)c2cc(C3=NNC(=O)CC3)ccc21 | inactive: -8.54%
15 | Cc1ccc(-c2onc3ccc(Br)cc23)cc1 | inactive: 4.77%
16 | Cc1cc(OC(=O)c2ccco2)c(Sc2ccccc2[N+](=O)[O-])c(=O)o1 | inactive: 3.59%
17 | O=C(COCC(=O)N1CCOCC1)N1CCOCC1 | inactive: 5.48%
18 | O=C(c1cccs1)N(c1ccc(Cl)cc1)C1C=CS(=O)(=O)C1 (stereo not drawn) | inactive: 2.19%
19 | O=C(CSc1ccccc1)Nc1ccc2c(c1)OCO2 | inactive: 30.5%
20 | COC(=O)CNC(c1ccccc1)c1cc(Br)ccc1N (stereo not drawn) | inactive: 20.8%
21 | CC/C(O)=C1\C(=O)CC(c2ccccc2)CC1=NC(C)C (stereo not drawn) | inactive: -5.25%
22 | CCCNC(=O)CN(C)CC(=O)Nc1ccccc1C#N | inactive: -0.655%
23 | CNc1ccc([N+](=O)[O-])cc1-c1nc2ccccc2[nH]c1=O | inactive: -24.2%
24 | CCOc1ccc(S(=O)(=O)N(CC)CC(=O)NCc2cccnc2)cc1 | inactive: -18.6%
25 | O=C(Nc1cccc(Cl)c1)Nc1ccnc(-c2cccnc2)n1 | inactive: 12%
26 | CC(=O)NCc1ccc(-c2csc(NC(=O)CCc3nc4ccccc4c(=O)[nH]3)n2)s1 | inactive: -6.81%
27 | CC(C(=O)NCC1(c2ccccc2)CCOCC1)N1CCOCC1 (stereo not drawn) | inactive: 3.75%

Row | Compound | growth rescue (activation)
28 | COc1ccccc1N1CCN(CC(=O)Nc2c(C)n(C)n(-c3ccccc3)c2=O)CC1 | inactive: 5.29%
29 | O=C(Nc1cc(Cl)ccc1Cl)c1cc(-c2ccco2)on1 | inactive: 2%
30 | CCOC(=O)C1(CCCc2ccccc2)CCN(Cc2cnn(C)c2)CC1 | inactive: 0.884%
31 | CC(=O)NC1C(Oc2ccc3c(C)cc(=O)oc3c2)OC(COC(C)=O)C(OC(C)=O)C1OC(C)=O (stereo not drawn) | inactive: -1.95%
32 | CCN(CC(=O)NCCc1ccccc1)S(=O)(=O)c1ccc(C)cc1 | inactive: 11%
33 | CC(=O)Nc1ccc(NC(=O)C(C)OC(=O)c2ccc(S(=O)(=O)N3CCCCC3)cc2)cc1 (stereo not drawn) | inactive: 22.7%
34 | CCOC(=O)c1c(NC(=O)CSc2nc3ccccc3o2)sc(C(C)=O)c1C | inactive: 8.67%
35 | CC1CCCN(S(=O)(=O)c2ccc(Cl)s2)C1 (stereo not drawn) | inactive: 16.9%
36 | O=C(CN1CCCc2ccccc21)N/N=C/c1c(O)ccc2ccccc12 | inactive: 16.6%
37 | O=C(OCCN=C1NS(=O)(=O)c2ccccc21)c1ccco1 | inactive: -0.217%
38 | Cc1ccc(C(=O)N2CCN(C(=O)CN3CCCC3)C2)cc1 | inactive: 13.6%
39 | COc1ccc(NC(=O)CSc2ccccc2)cc1S(=O)(=O)N1CCCCC1 | inactive: 4.95%
40 | N#Cc1ccc(CN2CCN(CC(=O)NCCc3ccc(Cl)cc3Cl)CC2)cc1 | inactive: -3.74%
41 | CCOc1ccc(N=C2NC(=O)/C(=C/C(=O)OC)S2)cc1 | inactive: -24.7%
42 | CC(C)(C)NC(=O)/C(=C\c1ccco1)NC(=O)c1ccco1 | inactive: -13.7%
43 | Cc1ccc(S(=O)(=O)N(C)C)cc1NC(=O)C(C)OC(=O)C1CCCCC1 (stereo not drawn) | inactive: 8.37%
44 | O=[N+]([O-])c1ccc(COc2ccc(-c3[nH]ncc3-c3ccccc3)c(O)c2)cc1 | inactive: -4.08%
45 | Cc1ccc(/C=C/C(=O)Nc2ccc(S(=O)(=O)Nc3onc(C)c3C)cc2)cc1 | inactive: 14%
46 | O=C(Nc1ccc(Cl)c(Cl)c1)Nc1ccc(Br)cc1F | inactive: 19.3%
47 | O=C(c1ccco1)N(Cc1ccco1)Cc1cc2ccccc2[nH]c1=O | inactive: 9.1%
48 | CC(=O)Nc1ccc(S(=O)(=O)Nc2cccc(S(=O)(=O)N(C)c3ccccc3)c2)cc1 | inactive: 7.13%
49 | Cc1cc(C(=O)N2C(C)CCCC2C)no1 (stereo not drawn) | inactive: 12.7%
50 | Cc1cc(C)c(NC(=O)CS(=O)CC(=O)NCC2CCCO2)c(C)c1 (stereo not drawn) | inactive: 18.5%
51 | Cn1cc(CCC(=O)NCCCc2ccccc2)c2ccccc21 | inactive: 17.1%
52 | NC(=O)COC(=O)CSc1ccc2ccccc2c1 | inactive: 25.7%
53 | Cc1ccc(/C=C2\SC(=O)N(CCC(=O)N3CCN(C)CC3)C2=O)cc1 | inactive: -10.4%
